Test results from PubChem BioAssay AID624417 (National Center for Advancing Translational Sciences (NCATS), 2012).
Out of some 410,000 compounds screened, about 6,400 (1.6%) were called active. The shares of active, inactive and inconclusive entries below differ from those in the screen. Calls come from the whole dose curve; as a rule, active = well fitted inhibition curve with a large enough effect; inconclusive = small, poorly fitted or top-dose-only effect; inactive = no such curve, though single readings can be large or run the other way. Potencies of inconclusive entries are left out as doubtful fits.

Target: Glucagon-like peptide 1 receptor (Homo sapiens) (UniProt P43220)
Experiment: qHTS of GLP-1 Receptor Inverse Agonists (Inhibition Mode); note: nearly all actives have a fitted effect of over 55% in size
Settings: HEK293 GLP-1R CRE-luciferase, luminescence, 24 h, GLP-1R form is constitutively active; activity change, negative = inhibition: at 38.3 µM (top of the series) unless noted
How it was run: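 Inverse agonism was detected as reduced cAMP-driven luciferase luminescence after 24 h compound treatment. The cells were HEK293 clones expressing constitutively active human GLP-1R with the reporter. Reporter-only and GPR119 cell lines served as counterscreen controls.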
% is set by controls: 0 for no effect and ±100 for the full control effect; potency is the fitted concentration of half-maximal effect; tags give direction and shape of the fitted curve.

UniProt P43220, sequence (P43220 whole entry, looked up): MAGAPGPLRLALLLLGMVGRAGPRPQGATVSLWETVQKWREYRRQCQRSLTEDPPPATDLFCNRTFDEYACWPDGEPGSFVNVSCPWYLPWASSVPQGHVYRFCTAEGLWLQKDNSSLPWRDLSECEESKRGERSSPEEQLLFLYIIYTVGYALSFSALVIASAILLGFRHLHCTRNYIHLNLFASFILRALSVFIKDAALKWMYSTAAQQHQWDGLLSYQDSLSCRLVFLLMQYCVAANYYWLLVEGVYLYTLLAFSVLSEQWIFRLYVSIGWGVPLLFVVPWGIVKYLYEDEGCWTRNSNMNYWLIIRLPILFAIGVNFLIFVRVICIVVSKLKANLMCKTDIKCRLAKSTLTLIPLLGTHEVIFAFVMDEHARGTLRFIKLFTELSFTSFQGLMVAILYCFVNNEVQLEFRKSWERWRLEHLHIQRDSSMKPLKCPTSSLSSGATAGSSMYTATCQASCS

Row | Compound | activity change, negative = inhibition | Potency
1 | COc1ccccc1C(=O)Nc1nnc2n1CCS2 | inactive: -3.1% | 
2 | S=C1NC2=C(CCCC2=C2SCCCS2)C(c2ccccc2)N1 (centres undefined) |  | inconclusive [inhibitor, partial curve, poor fit]
3 | COc1ccc(-c2cc(C(=O)N/N=C/c3cc(OC)c(OC)cc3OC)c3ccccc3n2)cc1 | inactive: 4.11% | 
4 | COC(=O)C(NC(=O)c1ccccc1C)(Nc1ncc(S(=O)(=O)c2ccc([N+](=O)[O-])cc2)s1)C(F)(F)F (centres undefined) |  | inconclusive [inhibitor, single point]
5 | Cc1ccc2oc(C(=O)N(Cc3sccc3C)C3CCS(=O)(=O)C3)c(C)c2c1 (centres undefined) | inactive: -28.5% | 
6 | CCOc1ccc(Nc2c(S(=O)(=O)c3ccc(C)cc3)cnc3ccc(F)cc23)cc1 | inactive: -12.1% | 
7 | Brc1ccc(-c2ccc(/C=N/Nc3nncc(-c4ccccc4)n3)o2)cc1 | inactive: 18.1% | 
8 | COc1ccccc1N1CCN(C(=O)CSc2ncnc3scc(-c4ccccc4)c23)CC1 |  | inconclusive [inhibitor, single point]
9 | O=C(NCc1ccc(F)cc1)c1cc(S(=O)(=O)N2CCCCC2)ccc1Cl |  | inconclusive [inhibitor, partial curve, poor fit]
10 | COc1ccccc1CNCC(O)(c1ccc(F)cc1)c1ccc(F)cc1 |  | inconclusive [inhibitor, single point]
11 | O=C(OCCN1CCOCC1)c1ccc(OCCN2CCOCC2)cc1 | inactive: 0.682% | 
12 | Cc1cc(NC(=O)c2ccccc2)sc1C |  | inconclusive [inhibitor, single point]
13 | COc1ccc(C)c2sc(NC(=O)C3CC3)nc12 |  | inconclusive [inhibitor, single point]
14 | Cc1cc(C)c(NC(=O)c2sc3nc4c(cc3c2N)C(=O)CC(C)(C)C4)c(C)c1 |  | inconclusive [inhibitor, single point]
15 | Cc1ccc(S(=O)(=O)c2nc(-c3ccccc3Cl)oc2NCCCN2CCOCC2)cc1 |  | inconclusive [inhibitor, single point]
16 | CCOc1ccc(NC(=O)c2cc(S(=O)(=O)N3CCN(c4ccccc4F)CC3)ccc2F)cc1 |  | inconclusive [inhibitor, partial curve]
17 | CC(=O)C1=C(c2ccccc2)N(C(C)=O)n2c(C)nnc2S1 |  | inconclusive [inhibitor, single point]
18 | CCOc1ccc(S(=O)(=O)N2CCCC(C(=O)NCc3ccncc3)C2)cc1Cl (centres undefined) |  | inconclusive [inhibitor, single point]
19 | COc1cccc(Cn2c(CNS(=O)(=O)c3ccc(Cl)s3)nc3cccnc32)c1 |  | inconclusive [inhibitor, single point]
20 | Cc1ccc(-c2c[n+](CC(=O)c3cccs3)c3n2CCC3)cc1 |  | inconclusive [inhibitor, partial curve, poor fit]
21 | CC(C)(C)c1cc(CCC(=O)NCc2ccccn2)cc(C(C)(C)C)c1O |  | inconclusive [inhibitor, partial curve, poor fit]
22 | Cn1c(=NCC(O)COc2ccccc2)sc2ccccc21 (centres undefined) |  | inconclusive [inhibitor, single point]
23 | O=C(Nc1nc2c(F)cccc2s1)c1ccco1 | inactive: 5.69% | 

Row | Compound | activity change, negative = inhibition | Potency
24 | CCOC(=O)C1=C(O)/C(=C/c2ccc(OCC(=O)O)c(OC)c2)SC1=Nc1ccc(OCC)cc1 | inactive: 19.5% | 
25 | C[C@@]12C(=O)N(c3ccc(C(F)(F)F)cc3)C(=O)N1[C@@H]1c3ccccc3OC[C@@H]1[C@H]2c1ccccc1 |  | inconclusive [inhibitor, partial curve]
26 | CC(=O)c1cccc(NC(=O)C2Cc3c(-c4ccccc4Oc4ccccc4)ccnc3O2)c1 (centres undefined) |  | inconclusive [inhibitor, partial curve, poor fit]
27 | COc1ccc(-c2cn3cc(C)ccc3n2)cc1Br |  | inconclusive [inhibitor, single point]
28 | CCOc1ccc(NCc2nc3ccccc3n2CCOc2ccc(C)cc2)cc1 |  | inconclusive [inhibitor, partial curve, poor fit]
29 | Cc1sc(NC(=O)CCl)c(C(=O)c2ccccc2)c1C | inactive: -3.7% | 
30 | CC(=O)N1CCCc2cc(S(=O)(=O)N3CCCC(C(=O)NCc4ccc(C)cc4)C3)ccc21 (centres undefined) |  | inconclusive [inhibitor, partial curve, poor fit]
31 | CCCn1nnnc1NC(=O)c1cc(Br)ccc1OC | inactive: 5.69% | 
32 | OCCN(CCO)c1nc2ccccc2[nH]1 | inactive: -7.57% | 
33 | Cc1ccc(CCNC(=O)c2ccc3c(c2)nc2n3CCOC2)cc1 | inactive: 2.02% | 
34 | Cc1ccccc1OCCCCn1nnc2sc3c(c2c1=O)CCC(C)C3 (centres undefined) | inactive: 2.8% | 
35 | Cc1nc2sccn2c(=O)c1S(=O)(=O)Nc1cc(C(F)(F)F)ccc1Cl |  | inconclusive [inhibitor, single point]
36 | CC1(C)C2CC[C@]1(C)C(=O)N(CCCCN1CCN(c3ccccn3)CC1)C2=O |  | inconclusive [inhibitor, partial curve]
37 | Cc1ccc(NC(=O)CS(=O)CC(=O)N(CC(=O)NC2CCCC2)c2cc(C)ccc2C)cc1 (centres undefined) | inactive: 1.62% | 
38 | Cc1ccc(C)c(N2CCN(c3ccncc3N)CC2)c1 |  | inconclusive [inhibitor, partial curve, poor fit]
39 | O=C(NCCc1ccccn1)C1CCN(S(=O)(=O)c2ccc(Cl)cc2)CC1 | inactive: -19.6% | 
40 | O=C(c1oc2ccccc2c1N1CCCCC1)N1CCCCC1 |  | inconclusive [inhibitor, single point]
41 | COc1cccc(NC(=O)/C=C/c2ccccc2[N+](=O)[O-])c1 |  | inconclusive [inhibitor, single point]
42 | COc1ccccc1CNC(=O)CSc1nnc(C)c2c(C)n(-c3ccccc3)nc12 | inactive: -0.0416% | 
43 | O=C(Nc1ccc(Cl)cc1)C1CCCCN1S(=O)(=O)c1ccccc1 (centres undefined) |  | inconclusive [inhibitor, partial curve, poor fit]
44 | O=C(Nc1ccc2[nH]ccc2c1)c1ccccc1 |  | inconclusive [inhibitor, partial curve, poor fit]
45 | CC(=O)c1ccc(NC(=O)N2CCN(c3cccc(Cl)c3)CC2)cc1 |  | inconclusive [inhibitor, partial curve]
46 | CC(=O)OCCNc1cc(N2CCN(C)CC2)c2noc3c2c1C(=O)c1ccccc1-3 | inactive: -16.8% | 

Row | Compound | activity change, negative = inhibition | Potency
47 | COc1ccc(/C=C/c2cccc[n+]2C)c(O)c1 | inactive: -1.92% | 
48 | Cc1cccnc1NC(=O)CN1C(=O)NC(C)(c2ccc3ccccc3c2)C1=O (centres undefined) | inactive: -1.43% | 
49 | CC(C)(C)c1ccc(C(=O)NNC(=O)C(=O)N2CCCCC2)cc1 |  | inconclusive [inhibitor, single point]
50 | Fc1ccc(C2C3=C(Nc4ncnn42)c2ccccc2OC3c2ccncc2)cc1 (centres undefined) |  | inconclusive [inhibitor, single point]
51 | Cc1cc(C)n(-c2nc3cc(Cl)ccc3nc2N2CCN(c3ccccc3F)CC2)n1 |  | inconclusive [inhibitor, single point]
52 | CNc1ncnc2sc(-c3ccccc3)cc12 | inactive: -12.3% [at 0.307 µM] | 
53 | COc1ccc(NC(=O)c2cc([N+](=O)[O-])ccc2O)cc1 |  | inconclusive [inhibitor, full curve, poor fit]
54 | Cc1ccc(NC(=O)CSc2nccn2Cc2ccccc2)cc1C |  | inconclusive [inhibitor, single point]
55 | CN(CCc1ccccc1)C(=O)c1cc(COc2cccc(C(F)(F)F)c2)on1 |  | inconclusive [inhibitor, partial curve, poor fit]
56 | O=C(NCc1ccon1)c1ccc(OC2CCN(CCc3ccccc3)CC2)cc1 |  | inconclusive [inhibitor, single point]
57 | N#Cc1ccc(Oc2c(Cl)cncc2Cl)cc1 | inactive: 4.2% | 
58 | CNC(=S)N(CCc1c(C)[nH]c2ccc(C)cc12)Cc1cc(OC)c(OC)c(OC)c1 |  | inconclusive [inhibitor, single point]
59 | Cc1cc(C(=O)NCC(=O)OCC(=O)NCCc2ccccc2)ccc1[N+](=O)[O-] | inactive: 18.1% | 
60 | Cc1ccc(S(=O)(=O)c2c(C)cc(C)nc2N2CCCC2)cc1 |  | inconclusive [inhibitor, full curve, poor fit]
61 | CCCCCNC(=O)C1C(=O)Nc2ccccc2C(=O)N1c1c(C)cccc1C (centres undefined) | inactive: 22.9% | 
62 | COc1ccccc1NS(=O)(=O)c1ccc(C(=O)N2CCN(c3ccccc3O)CC2)cc1 |  | inconclusive [inhibitor, single point]
63 | CN(CC(=O)Nc1ccccc1Cl)CC(=O)Nc1sc2c(c1C(N)=O)CCC2 |  | inconclusive [inhibitor, single point]
64 | CN(NS(=O)(=O)c1ccccc1)c1nc2ccccc2nc1C(F)(F)F |  | inconclusive [inhibitor, single point]
65 | O=C(CN1CCN(S(=O)(=O)c2ccc(F)cc2)CC1)Nc1ccccc1F |  | inconclusive [inhibitor, single point]
66 | O=C(CCNC(=O)c1ccco1)NCc1ccc(C(=O)O)cc1 | inactive: 11.9% | 
67 | CCN1CCC2(CC1)N=C(c1ccc(F)cc1)C(=S)N2C(=O)c1ccc(C(C)(C)C)cc1 |  | inconclusive [inhibitor, single point]
68 | Cc1cc(SCC(=O)NC2(C#N)CCCCC2)nc2c(C)cccc12 |  | active: 10 µM
69 | COc1ccccc1C(=O)NNC(=O)C(=O)Nc1ccc(C)cc1 |  | inconclusive [inhibitor, partial curve, poor fit]
